# The list shows a part of the results.
# B1: HBHA-Rv (Mycobacterium tuberculosum), P0A5P6 (protein)
# chain: MAENSNIDDIKAPLLAALGAADLALATVNELITNLRERAEETRTDTRSRVEESRARLTKLQEDLPEQLTELREKFTAEELRKAAEGYLEAATSRYNELVERGEAALERLRSQQSFEEVSARAEGYVDQAVELTQEALGTVASQTRAVGERAAKLVGIELPKKAAPAKKAAPAKKAAPAKKAAAKKAPAKKAAAKKVTQK
# Assays:
# Experiment in all cases: glycan array binding signal (z-score within array); higher = stronger binding
# Conditions in all cases: glycan notation: IUPAC condensed, linker removed
# [1] = target: Neu5Ac(a2-6)GlcNAc(b1-4)GlcNAc
# Outline: (§1)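 The binding signal is a Z-score computed within each array and averaged over linkers. Arrays of the same protein sequence at different concentrations or buffers were also averaged together. Data originate from 3228 arrays in the Consortium for Functional Glycomics database, kept only where the protein sequence was available.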
# [2] = target: Neu5Ac(a2-6)GlcNAc(b1-4)GlcNAc(b1-4)GlcNAc
# Outline: as §1
# Neu5Ac(a2-8)Neu5Ac = target: Neu5Ac(a2-8)Neu5Ac
# Outline: as §1
# [3] = target: Neu5Ac(a2-8)Neu5Ac(a2-3)Gal(b1-3)GalNAc(b1-4)[Neu5Ac(a2-3)]Gal(b1-4)Glc
# Outline: as §1
# [4] = target: Neu5Ac(a2-8)Neu5Ac(a2-3)Gal(b1-3)GalNAc(b1-4)[Neu5Ac(a2-8)Neu5Ac(a2-3)]Gal(b1-4)Glc
# Outline: as §1
# [5] = target: Neu5Ac(a2-8)Neu5Ac(a2-3)Gal(b1-4)Glc
# Outline: as §1
# [6] = target: Neu5Ac(a2-8)Neu5Ac(a2-3)Gal(b1-4)GlcNAc
# Outline: as §1
# [7] = target: Neu5Ac(a2-8)Neu5Ac(a2-3)[Gal(b1-3)GalNAc(b1-4)]Gal(b1-4)Glc
# Outline: as §1
# [8] = target: Neu5Ac(a2-8)Neu5Ac(a2-3)[GalNAc(b1-4)]Gal(b1-4)Glc
# Outline: as §1
# [9] = target: Neu5Ac(a2-8)Neu5Ac(a2-8)Neu5Ac
# Outline: as §1
# [10] = target: Neu5Ac(a2-8)Neu5Ac(a2-8)Neu5Ac(a2-3)Gal(b1-4)Glc
# Outline: as §1
# [11] = target: Neu5Ac(a2-8)Neu5Ac(a2-8)Neu5Ac(a2-3)[Gal(b1-3)GalNAc(b1-4)]Gal(b1-4)Glc
# Outline: as §1
# [12] = target: Neu5Ac(a2-8)Neu5Ac(a2-8)Neu5Ac(a2-3)[GalNAc(b1-4)]Gal(b1-4)Glc
# Outline: as §1
# [13] = target: Neu5Ac(a2-8)Neu5Ac(a2-8)Neu5Ac(a2-8)Neu5Ac(a2-3)[GalNAc(b1-4)]Gal(b1-4)Glc
# Outline: as §1
# [14] = target: Neu5Ac(a2-8)Neu5Gc(a2-3)Gal(b1-4)GlcNAc
# Outline: as §1
# [15] = target: Neu5Ac(b2-6)Gal(b1-4)GlcNAc
# Outline: as §1
# Neu5Ac(b2-6)GalNAc = target: Neu5Ac(b2-6)GalNAc
# Outline: as §1
# [16] = target: Neu5Ac9Ac(a2-3)Gal(b1-3)GlcNAc
# Outline: as §1
# [17] = target: Neu5Ac9Ac(a2-3)Gal(b1-4)GlcNAc
# Outline: as §1
# [18] = target: Neu5Ac9Ac(a2-6)Gal(b1-4)GlcNAc
# Outline: as §1
# [19] = target: Neu5Gc(a2-3)Gal(b1-3)GlcNAc
# Outline: as §1
# [20] = target: Neu5Gc(a2-3)Gal(b1-3)[Fuc(a1-4)]GlcNAc
# Outline: as §1
# Neu5Gc(a2-3)Gal(b1-4)Glc = target: Neu5Gc(a2-3)Gal(b1-4)Glc
# Outline: as §1
# [21] = target: Neu5Gc(a2-3)Gal(b1-4)GlcNAc
# Outline: as §1
# [22] = target: Neu5Gc(a2-3)Gal(b1-4)GlcNAc(b1-3)Gal(b1-4)GlcNAc(b1-2)Man(a1-3)[Neu5Gc(a2-3)Gal(b1-4)GlcNAc(b1-3)Gal(b1-4)GlcNAc(b1-2)Man(a1-6)]Man(b1-4)GlcNAc(b1-4)GlcNAc
# Outline: as §1
# [23] = target: Neu5Gc(a2-3)Gal(b1-4)[Fuc(a1-3)]GlcNAc
# Outline: as §1
# [24] = target: Neu5Gc(a2-6)Gal(b1-4)GlcNAc
# Outline: as §1
# Neu5Gc(a2-6)GalNAc = target: Neu5Gc(a2-6)GalNAc
# Outline: as §1
# [25] = target: Neu5Gc(a2-8)Neu5Ac(a2-3)Gal(b1-4)GlcNAc
# Outline: as §1
# [26] = target: Neu5Gc(a2-8)Neu5Gc(a2-3)Gal(b1-4)GlcNAc
# Outline: as §1
# [27] = target: Neu5Gc(a2-8)Neu5Gc(a2-3)Gal(b1-4)GlcNAc(b1-3)Gal(b1-4)GlcNAc
# Outline: as §1
# [28] = target: Neu5Gc(a2-8)Neu5Gc(a2-6)Gal(b1-4)GlcNAc
# Outline: as §1
# [29] = target: Neu5Gc(b2-6)Gal(b1-4)GlcNAc
# Outline: as §1
binder,measurement,setting,value
B1,glycan array binding signal (z-score),[1],-0.401
same,glycan array binding signal (z-score),[2],-0.361
same,glycan array binding signal (z-score),Neu5Ac(a2-8)Neu5Ac,-0.261
same,glycan array binding signal (z-score),[3],-0.37
same,glycan array binding signal (z-score),[4],0.674
same,glycan array binding signal (z-score),[5],0.185
same,glycan array binding signal (z-score),[6],-0.326
same,glycan array binding signal (z-score),[7],1.55
same,glycan array binding signal (z-score),[8],-0.209
same,glycan array binding signal (z-score),[9],-0.348
same,glycan array binding signal (z-score),[10],-0.266
same,glycan array binding signal (z-score),[11],-0.42
same,glycan array binding signal (z-score),[12],-0.152
same,glycan array binding signal (z-score),[13],-0.135
same,glycan array binding signal (z-score),[14],-0.388
same,glycan array binding signal (z-score),[15],-0.155
same,glycan array binding signal (z-score),Neu5Ac(b2-6)GalNAc,0.298
same,glycan array binding signal (z-score),[16],-0.212
same,glycan array binding signal (z-score),[17],-0.363
same,glycan array binding signal (z-score),[18],0.472
same,glycan array binding signal (z-score),[19],-0.401
same,glycan array binding signal (z-score),[20],-0.33
same,glycan array binding signal (z-score),Neu5Gc(a2-3)Gal(b1-4)Glc,-0.346
same,glycan array binding signal (z-score),[21],-0.348
same,glycan array binding signal (z-score),[22],-0.458
same,glycan array binding signal (z-score),[23],-0.009
same,glycan array binding signal (z-score),[24],0
same,glycan array binding signal (z-score),Neu5Gc(a2-6)GalNAc,-0.287
same,glycan array binding signal (z-score),[25],-0.267
same,glycan array binding signal (z-score),[26],-0.304
same,glycan array binding signal (z-score),[27],-0.429
same,glycan array binding signal (z-score),[28],-0.171
same,glycan array binding signal (z-score),[29],-0.434

# From the supplement of paper PMC8728848
